Results from PubChem BioAssay AID504339 (National Center for Advancing Translational Sciences (NCATS), 2011).
The whole screen tested about 390,000 compounds, of which about 17,000 (4.4%) were called active. This list was built around the results that the source calls inconclusive (neither active nor inactive); the mix of calls is not that of the screen. The call rests on the fitted dose curve; in most records, active means well fitted inhibition curve with a large enough effect; inconclusive means small, poorly fitted or top-dose-only effect; inactive means no such curve, though single readings can be large or run the other way. Where the call is inconclusive, the potency comes from a doubtful curve fit.

Target: Lysine-specific demethylase 4A (Homo sapiens) (UniProt O75164)
Experiment: qHTS Assay for Inhibitors of JMJD2A-Tudor Domain; further: nearly all actives have a fitted effect of over 50% in size
Conditions: AlphaScreen JMJD2A-Tudor / H3K4me3 peptide binding; activity change, negative = inhibition: at 114 µM (top of the series)
On the % scale 0 is the no-effect control and ±100 the full control effect; potency means the concentration at half of the fitted maximal effect; tags describe the fitted curve by direction and shape.

Chain of UniProt O75164 (O75164 whole entry, looked up, the tested form may be a part): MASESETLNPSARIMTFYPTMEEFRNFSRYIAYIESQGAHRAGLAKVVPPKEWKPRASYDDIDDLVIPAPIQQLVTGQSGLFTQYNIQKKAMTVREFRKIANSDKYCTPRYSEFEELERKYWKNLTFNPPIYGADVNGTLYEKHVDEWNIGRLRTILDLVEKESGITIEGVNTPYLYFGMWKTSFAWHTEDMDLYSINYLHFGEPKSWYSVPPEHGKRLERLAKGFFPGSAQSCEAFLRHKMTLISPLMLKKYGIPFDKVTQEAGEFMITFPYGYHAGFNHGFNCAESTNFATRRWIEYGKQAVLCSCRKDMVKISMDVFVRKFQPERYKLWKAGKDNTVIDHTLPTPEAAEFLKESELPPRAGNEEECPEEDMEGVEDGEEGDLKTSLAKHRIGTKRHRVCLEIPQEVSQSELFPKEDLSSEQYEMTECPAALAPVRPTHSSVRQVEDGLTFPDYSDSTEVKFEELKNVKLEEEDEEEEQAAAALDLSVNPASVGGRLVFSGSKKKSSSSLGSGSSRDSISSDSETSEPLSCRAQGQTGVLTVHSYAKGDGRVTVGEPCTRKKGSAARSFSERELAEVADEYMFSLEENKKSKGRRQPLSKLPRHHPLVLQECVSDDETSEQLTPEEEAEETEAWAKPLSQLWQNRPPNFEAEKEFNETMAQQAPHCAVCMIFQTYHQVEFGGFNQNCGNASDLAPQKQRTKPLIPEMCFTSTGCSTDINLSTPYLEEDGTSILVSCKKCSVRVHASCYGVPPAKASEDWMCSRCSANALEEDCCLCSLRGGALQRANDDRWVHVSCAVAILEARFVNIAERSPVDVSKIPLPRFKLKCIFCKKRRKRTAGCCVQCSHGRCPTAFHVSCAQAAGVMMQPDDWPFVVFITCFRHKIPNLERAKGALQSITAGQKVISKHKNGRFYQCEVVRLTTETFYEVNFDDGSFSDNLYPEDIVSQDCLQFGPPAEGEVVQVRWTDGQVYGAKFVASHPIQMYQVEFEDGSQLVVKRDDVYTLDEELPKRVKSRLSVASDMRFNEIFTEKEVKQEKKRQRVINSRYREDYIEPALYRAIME

SMILES | activity change, negative = inhibition | Potency
O=c1[nH]cc(S(=O)(=O)NCc2ccccc2)c(=O)[nH]1 | inactive: 13.4% | 
CN(C)S(=O)(=O)c1cccc(NC(=O)CN(CCO)CC(=O)Nc2cccc(S(=O)(=O)N(C)C)c2)c1 |  | inconclusive: 1.12 µM [inhibitor, full curve]
CCN(CC)c1ccc(/C=C2\C(=O)c3ccc(C(=O)O)cc3C2=O)cc1 |  | active: 44.7 µM
CN(C)c1cccc(NC2=CC(=[N+]3CCOCC3)CC(C)(C)C2)c1 |  | active: 89.1 µM
O=C(C1CCCCC1)N1CCCC(c2nc3c(nnn3Cc3ccccc3)c(=O)[nH]2)C1 (configuration not stated) | inactive: -12.7% | 
CC[n+]1ccc(/C=C/c2c[nH]c3ccccc23)cc1 |  | inconclusive: 35.5 µM [inhibitor, partial curve]
COC(=O)[C@]1(C)N[C@H](CN(C)S(=O)(=O)c2ccccc2)[C@@H]2C(=O)N(C)C(=O)[C@@H]21 |  | inconclusive: 89.1 µM [inhibitor, single point]
C#CCNC(=O)C1=C[C@@H](c2ccc(C#C)cc2)C[C@@H](OCCCCO)O1 |  | inconclusive: 56.2 µM [inhibitor, partial curve]
CC(=O)c1ccc(NC(=O)c2nc(-c3ccc(C)cc3)n3c2CCCCC3)cc1 | inactive: -23.4% | 
Cc1ccccc1C(=O)N1CCN(c2ccc(NC(=O)c3ccc4c(c3)OCCO4)cc2)CC1 |  | inconclusive: 44.7 µM [inhibitor, partial curve]
O=C(CSc1nnc(-c2cccnc2)o1)NNC(=O)c1ccc(Br)cc1 | inactive: -13.5% | 
COc1ccc(-c2[nH]n(-c3ccc([N+](=O)[O-])cc3)c(=O)c2C=NCc2ccccc2)cc1 | inactive: -13.1% | 
O=C(NCC1CCCO1)C1CCN(CC2CCCCC2)CC1 (configuration not stated) |  | active: 35.5 µM
Cc1ccc(C)c(CN2CCC(CNC(=O)Nc3ccc(F)c(Cl)c3)CC2)c1 |  | inconclusive: 0.708 µM [inhibitor, full curve]
Cc1ccc(-c2csc(=Nc3cccnc3)n2CCCn2ccnc2)cc1C |  | inconclusive: 44.7 µM [inhibitor, single point]
CCOc1ccccc1C(=O)Oc1cc(C)[nH]c(=O)c1[N+](=O)[O-] | inactive: -6.21% | 
Oc1c(CN2CCOCC2)cc(CN2CCOCC2)c(O)c1CN1CCOCC1 |  | active: 7.94 µM
O=c1[nH]c(/C=C\c2ccc(O)c(O)c2)nc(O)c1[N+](=O)[O-] |  | inconclusive: 25.1 µM [inhibitor, full curve]
Cc1c(NC(=O)c2cc3ccccc3oc2=O)c(=O)n(-c2ccccc2)n1C | inactive: -3.66% | 
COC(=O)c1c(C)[nH]c(C(=O)C(C)OC(=O)c2cc(C)oc2C)c1C (configuration not stated) | inactive: -10.4% | 
CCOC(=O)c1sc2nc(CSc3ccccc3)nc(N3CCCN(C)CC3)c2c1C |  | active: 14.1 µM
Cc1ccccc1-c1nnc(SCC(=O)N(C)C2CCCCC2)o1 | inactive: 1.32% | 
CCN(CC)Cc1c(O)c(Cl)cc2c(C)cc(=O)oc12 | inactive: -33.3% | 
O=c1[nH]n(-c2cccc3cccnc23)c(=O)c2ccccc12 | inactive: -26% [at 57.1 µM] | 

SMILES | activity change, negative = inhibition | Potency
COc1ccc(C(=O)NCCN2CCCC2)cc1[N+](=O)[O-] | inactive: -10.8% | 
COc1ccc(S(=O)(=O)n2c([N+](=O)[O-])cnc2C)cc1OC |  | inconclusive: 89.1 µM [inhibitor, single point]
CCCn1nc(NS(=O)(=O)c2cccc3nonc23)c2cc3cccc(C)c3nc21 |  | inconclusive: 39.8 µM [inhibitor, partial curve]
CCS(=O)(=O)N1CCN=C1SCc1ccc(F)cc1 | inactive: -10.7% | 
O=C(NCc1ccc(F)cc1)c1ccc2c(c1)nnn2C1CCCC1 |  | inconclusive: 79.4 µM [inhibitor, single point]
O=C1c2cccnc2C(Nc2cccc(F)c2)N1Cc1ccco1 (configuration not stated) | inactive: -5.19% | 
COc1ccc(-c2c3c(=O)n(C)c(=O)n(C)c3cn2Cc2cccnc2)cc1 | inactive: -9.4% | 
Cc1nn(-c2ccccn2)c2c1C(c1ccccc1Cl)C1=C(N2)c2ccccc2C1=O (configuration not stated) |  | inconclusive: 3.55 µM [inhibitor, full curve]
Cc1c(NC(=O)c2cc(-c3ccc(Cl)cc3)on2)c(=O)n(-c2ccccc2)n1C |  | inconclusive: 79.4 µM [inhibitor, partial curve]
Cc1cc(O)c(N=Nc2ccc(C(=O)O)cc2)cc1C |  | inconclusive: 89.1 µM [inhibitor, partial curve]
CN(C)c1ccc(NC(=O)COC(=O)CCC(=O)c2ccc(F)cc2)cc1 |  | inconclusive: 50.1 µM [inhibitor, partial curve]
O=C(O)c1cccnc1SCC(=O)N1CCCc2ccccc21 |  | inconclusive: 56.2 µM [inhibitor, partial curve]
COc1ccc(S(=O)(=O)Nc2ccc3c(c2)C(=O)N([C@H](C)CO)C[C@H](C)[C@@H](CN(C)S(=O)(=O)c2ccc(F)cc2)O3)cc1 | inactive: -22.1% | 
Cc1ccc(Cn2ccnc2SCC(=O)Nc2ccc3c(c2)OCO3)cc1 |  | inconclusive: 63.1 µM [inhibitor, partial curve, poor fit]
CCN1CCN(c2ccc(S(=O)(=O)N3CCCCC3)cc2NC(=O)C(C)Oc2ccc(F)cc2)CC1 (configuration not stated) |  | inconclusive: 2.82 µM [inhibitor, partial curve, poor fit]
O=C1c2ccccc2C(=O)c2c([N+](=O)[O-])ccc(O)c21 |  | inconclusive: 56.2 µM [inhibitor, partial curve]
Cc1noc(C)c1CSCC(=O)Nc1nc2c(F)cc(F)cc2s1 |  | active: 44.7 µM
C=CCOc1ccc(/C=N/NC(=O)CC(=O)NC2CCCCC2)cc1 | inactive: -15.4% | 
CN(Cc1ccc2nonc2c1)Cc1nc(CC2CC2)no1 | inactive: -4.12% | 
CCOc1ccc(CNC(=O)c2ccc(-c3nc(CSc4ccc(C)cc4)c(C)o3)cc2)cc1 | inactive: 1.38% | 
COc1ccc(NC(=O)C2C3C=CC(O3)C2C(=O)O)cc1 (configuration not stated) | inactive: -18.5% | 
COC(=O)C1=C(C)N(Cc2ccccc2)C(=NCc2ccccc2)N[C@H]1c1ccccc1 |  | inconclusive: 25.1 µM [inhibitor, partial curve]
Cc1cccc(-c2cc3nc(C)c(C)c(NCCCn4ccnc4)n3n2)c1 |  | inconclusive: 20 µM [inhibitor, single point]
